The whole screen tested about 270,000 compounds, of which about 620 (0.23%) were called active. The shares of active, inactive and inconclusive entries below differ from those in the screen. The call rests on the fitted dose curve; in most records, active means well fitted inhibition curve with a large enough effect in the polarisation, with a control signal flat (not every such curve was filed as active); inconclusive means small, poorly fitted or top-dose-only effect, or effect the other way, or a change in a side signal; inactive means no such curve, though single readings can be large or run the other way; the % refers to the polarisation. A potency beside an inconclusive call is a rough fit, not a confirmed value. A note “side channel” means that the fit belongs to a control or component signal, not to the main read-out.
What follows are compounds tested against Menin (Homo sapiens) (UniProt O00255) (assay: qHTS Assay for Inhibitors Targeting the Menin-MLL Interaction in MLL Related Leukemias: Competition With Texas Red Labeled MLL-derived Mutant Peptide). Conditions: fluorescence polarization; FP activity change, negative = inhibition: at 61.6 µM (top of the series).
Sequence of UniProt O00255 (O00255 whole entry, looked up): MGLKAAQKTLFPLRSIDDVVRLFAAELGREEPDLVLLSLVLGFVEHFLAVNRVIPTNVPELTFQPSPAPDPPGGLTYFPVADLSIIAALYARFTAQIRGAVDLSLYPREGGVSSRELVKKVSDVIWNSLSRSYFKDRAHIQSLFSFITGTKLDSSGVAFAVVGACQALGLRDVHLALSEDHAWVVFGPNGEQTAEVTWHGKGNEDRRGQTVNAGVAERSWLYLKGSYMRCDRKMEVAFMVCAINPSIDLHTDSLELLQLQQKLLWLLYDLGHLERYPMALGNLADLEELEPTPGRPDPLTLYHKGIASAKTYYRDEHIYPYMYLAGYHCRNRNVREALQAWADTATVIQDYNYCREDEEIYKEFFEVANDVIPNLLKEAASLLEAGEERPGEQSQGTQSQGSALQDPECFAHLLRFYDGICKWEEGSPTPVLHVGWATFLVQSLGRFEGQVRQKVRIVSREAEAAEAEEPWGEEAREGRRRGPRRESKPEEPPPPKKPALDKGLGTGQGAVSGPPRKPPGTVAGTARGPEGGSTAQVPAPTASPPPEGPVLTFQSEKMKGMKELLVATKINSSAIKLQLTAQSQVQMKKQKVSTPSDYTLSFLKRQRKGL
For `O=C(N/N=C/c1ccccn1)c1ccc(Cl)cc1`, the “FP activity change, negative = inhibition” value was inactive: -3.71%. With `CC(=O)Nc1ccc(NC(=O)c2ccc(NS(=O)(=O)c3cccc4cccnc34)cc2)cc1` the Potency was inconclusive: 39.8 µM [inhibitor, single point]. For `C=CCSc1nnc2n(-c3ccccc3OC)c(=O)c3c4c(sc3n12)CCC4`, the Potency was inconclusive: 8.91 µM [fluorescent, side channel, partial curve]. In the case of `OC[C@H](S)CS`, the “FP activity change, negative = inhibition” value is reported as inactive: 0.234%. For `Nc1c(-c2ccccc2)cnn1-c1ccccc1`, the “FP activity change, negative = inhibition” value was inactive: 13.7%. With `CCOC(=O)c1c(C)[nH]c(N=Nc2ccccc2C)c1C` the Potency was inconclusive: 11.2 µM [quencher, side channel, partial curve]. In the case of `Cc1cc(C)cc(NC(=O)c2ccc(NC(=O)c3ccco3)cc2)c1`, the Potency is reported as inconclusive: 22.4 µM [quencher, side channel, single point]. In the case of `COc1ccc(CN2CCC(n3nccc3NC(=O)c3cccc(F)c3)CC2)cc1O`, the “FP activity change, negative = inhibition” value is reported as inactive: -18.4%. `COc1ccc(N(CC(=O)Nc2ccccc2OC)S(=O)(=O)c2ccc(NC(C)=O)cc2)cc1` was tested, and the Potency was inconclusive: 35.5 µM [quencher, side channel, single point]. In the case of `COc1ccc(C(=O)N(C)C2CCCN(Cc3ccccc3F)C2)cc1C` (centres undefined), the Potency is reported as inconclusive: 25.1 µM [fluorescent, side channel, partial curve]. With `CCn1c2ccccc2c2cc(NC(=O)CSc3nnc(-c4ccc(OC)c(OC)c4)n3N)ccc21` the Potency was inconclusive: 35.5 µM [quencher, side channel, single point]. In the case of `Cc1ccc(SCc2c(C(=O)N/N=C/c3ccoc3)nnn2-c2nonc2N)cc1`, the Potency is reported as inconclusive: 14.1 µM [quencher, side channel, partial curve]. With `COc1ccc(C(=O)Nc2ccccc2C(=O)O)cc1Cl` the Potency was inconclusive: 11.2 µM [quencher, side channel, partial curve]. `O=C1NC(c2ccc(Cl)cc2)Nc2ccccc21` (centres undefined) was tested, and the Potency was inconclusive: 25.1 µM [inhibitor, single point]. With `Cc1ccc(-n2c(O)c(/C=N/c3ncn[nH]3)c3ccccc3c2=O)cc1` the Potency was inconclusive: 35.5 µM [fluorescent, side channel, single point]. With `COc1cccc(-c2nc(NCc3ccco3)c3ccccc3n2)c1O` the Potency was inconclusive: 10 µM [quencher, side channel, partial curve]. `Cc1cccc(N2CCN(C(=O)c3cc(S(=O)(=O)N(C)C)ccc3N3CCCC3)CC2)c1C` was tested, and the Potency was inconclusive: 2.51 µM [fluorescent, side channel, full curve, poor fit]. With `CCCC(=Nc1ccccc1)C1=C(O)C(C(=O)OC)C(C)(C)CC1=O` (centres undefined) the “FP activity change, negative = inhibition” value was inactive: -1.6%. With `COc1ccc(/C=C2\CCc3ccccc3C2=O)cc1Cn1cccn1` the Potency was inconclusive: 7.94 µM [fluorescent, side channel, full curve]. For `COc1ccc(OC)c(/C=N/NC(=O)c2cc3c(OC)c(OC)ccc3[nH]2)c1`, the Potency was inconclusive: 10 µM [quencher, partial curve]. In the case of `CCCCn1c(SCc2ccc(Cl)cc2)nc2c1c(=O)[nH]c(=O)n2C`, the Potency is reported as inconclusive: 15.8 µM [fluorescent, side channel, partial curve]. `CN(C)C(=O)c1ccc(-c2cc(NCc3cccnc3)ncn2)cc1` was tested, and the “FP activity change, negative = inhibition” value was inactive: -14.8%. With `O=C(CNC(=O)c1ccccc1F)NCCc1ccc(Cl)cc1Cl` the Potency was inconclusive: 31.6 µM [inhibitor, single point]. `Cc1csc(NC(=O)CSc2nsc(SCC(=O)Nc3nc(C)cs3)c2C#N)n1` was tested, and the Potency was inconclusive: 8.91 µM [quencher, side channel, full curve]. In the case of `Cc1nc(C)n(CCNC(=O)c2ccco2)n1`, the Potency is reported as inconclusive: 39.8 µM [quencher, side channel, single point]. In the case of `Cc1ccc(C)c(NC(=O)c2cc(-c3cc(C)ccc3O)n[nH]2)c1`, the Potency is reported as inconclusive: 25.1 µM [quencher, side channel, single point]. With `C=CCn1c(=O)c(C(=O)NCc2ccc3c(c2)OCO3)c(O)c2cc(OC)c(OC)cc21` the Potency was inconclusive: 39.8 µM [fluorescent, side channel, single point]. `Cc1cc(=O)oc2cc(OCC(O)CN3CCc4ccccc4C3)ccc12` (centres undefined) was tested, and the “FP activity change, negative = inhibition” value was inactive: -0.0369%. For `CC1(C)CC(=O)C2=C(C1)Nc1cc3c(cc1C2c1ccc(F)cc1)OCO3` (centres undefined), the Potency was inconclusive: 39.8 µM [quencher, side channel, single point]. With `CCS(=O)(=O)NCc1ccc2c(c1)cc(C)n2C` the Potency was inconclusive: 39.8 µM [inhibitor, single point]. In the case of `CC1=C(C(=O)Nc2ccccc2)C(c2ccncc2)C(C#N)=C(SCC(=O)NC(C)C)N1` (centres undefined), the Potency is reported as inconclusive: 39.8 µM [inhibitor, single point]. With `Cc1nn(-c2ccccc2)c(C)c1/C=N/NC(=O)c1cc(-c2cccs2)[nH]n1` the “FP activity change, negative = inhibition” value was inactive: 27%. In the case of `COc1cccc(-n2nc(C(C)=O)c(C#N)c2-c2ccco2)c1`, the Potency is reported as inconclusive: 39.8 µM [fluorescent, side channel, single point]. `O=C(NC(=S)Nc1cc(C(F)(F)F)ccc1Cl)c1ccccc1` was tested, and the Potency was inconclusive: 39.8 µM [inhibitor, single point]. With `Cn1c(N)c(C(=O)COC(=O)c2cc(-c3ccccc3)nc3ccccc23)c(=O)n(C)c1=O` the Potency was inconclusive: 2.82 µM [quencher, side channel, full curve]. `CC(C)(C)C1COc2ccccc2N1C(=O)c1ccccc1Cl` (centres undefined) was tested, and the Potency was inconclusive: 20 µM [fluorescent, side channel, single point]. In the case of `CCc1ccc(N2CC(C(=O)N/N=C/c3cc([N+](=O)[O-])ccc3O)CC2=O)cc1` (centres undefined), the Potency is reported as inconclusive: 10 µM [quencher, side channel, partial curve]. With `C=CCNC(=O)NC(=O)Cn1c(=O)c2c(ncn2CC)n(Cc2ccccc2)c1=O` the Potency was inconclusive: 2.82 µM [inhibitor, full curve]. In the case of `CC(C)C[C@H]1CN=C(Nc2ccccc2)N1CCCC1CCCC1`, the Potency is reported as inconclusive: 28.2 µM [inhibitor, single point].
Potency means the concentration at half of the fitted maximal effect; tags describe the fitted curve by direction and shape or compound fluorescence and quenching.
Wherever FP activity change, negative = inhibition is given: % of control where 0% means no effect.
